Laboratory results reported in PubChem BioAssay AID1477 (National Center for Advancing Translational Sciences (NCATS), 2009).
The whole screen tested about 230,000 compounds, of which fewer than 10 were called active. This list was built around the results that the source calls inconclusive (neither active nor inactive); the mix of calls is not that of the screen. Calls follow the shape of the dose curve; as a rule, active = well fitted curve in the direction sought with a large enough effect; inconclusive = small, poorly fitted or top-dose-only effect, or effect the other way, or another doubt; inactive = no such curve, though single readings can be large or run the other way. No potency is given beside an inconclusive call; the fits are too rough.

Each compound was assayed against Runt-related transcription factor 1 (Homo sapiens) + Core-binding factor subunit beta (Homo sapiens) (UniProt Q01196+Q13951) (assay: qHTS Assay for Compounds Blocking the Interaction Between CBF-beta and RUNX1 for the Treatment of Acute Myeloid Leukemia). Details: AlphaScreen CBFb-His/RUNX1-biotin binding, biochemical; activity, negative = inhibition: at 59.8 µM (top of the series) unless noted.
Summary of the method: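 Interaction loss through any mechanism counts as activity. Pre-formed complex of His-CBF-beta and biotin-RUNX1 (30 nM apiece) is incubated with compound 15 min, then with 50 ng nickel and 50 ng streptavidin beads for 90 min before AlphaScreen detection.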
For activity, negative = inhibition in this document: % of control where 0% means no effect.

UniProt Q01196, sequence (Q01196 whole entry, looked up): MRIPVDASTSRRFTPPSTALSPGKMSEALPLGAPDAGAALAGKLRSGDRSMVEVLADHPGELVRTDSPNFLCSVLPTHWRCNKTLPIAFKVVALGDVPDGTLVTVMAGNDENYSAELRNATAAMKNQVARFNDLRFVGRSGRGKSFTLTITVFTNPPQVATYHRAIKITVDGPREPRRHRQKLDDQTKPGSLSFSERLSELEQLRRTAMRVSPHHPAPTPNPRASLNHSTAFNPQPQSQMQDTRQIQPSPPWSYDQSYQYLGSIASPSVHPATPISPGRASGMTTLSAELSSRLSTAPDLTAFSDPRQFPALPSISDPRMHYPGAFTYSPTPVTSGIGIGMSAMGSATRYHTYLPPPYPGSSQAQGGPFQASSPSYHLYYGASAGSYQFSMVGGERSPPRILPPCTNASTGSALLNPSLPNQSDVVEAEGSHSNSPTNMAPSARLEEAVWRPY
UniProt Q01196, sequence (Q13951 whole entry, looked up): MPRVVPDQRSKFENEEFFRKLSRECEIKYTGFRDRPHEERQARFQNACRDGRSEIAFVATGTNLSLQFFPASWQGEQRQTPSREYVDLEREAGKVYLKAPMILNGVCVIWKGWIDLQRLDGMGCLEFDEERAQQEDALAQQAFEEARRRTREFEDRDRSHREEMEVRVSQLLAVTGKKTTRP

Compound | Potency | activity, negative = inhibition
Nc1c(C(=O)NCc2ccc3c(c2)OCO3)c2nc3ccccc3nc2n1CCCN1CCOCC1 | inconclusive [activator, partial curve] | 
CC(C)(C)c1ccc(NC(=O)c2ccccc2)c([N+](=O)[O-])c1 | inconclusive [inhibitor, partial curve] | 
O=C(NCc1ccccn1)c1cccc([N+](=O)[O-])c1 |  | inactive: -0.869%
O=C(O)CCn1nnc2ccccc21 |  | inactive: 4.27%
CC1=CC(C)(C)n2c(O)c(N=N)c3c(C)c(C)cc1c32 | inconclusive [inhibitor, partial curve] | 
Cc1ccc(NS(=O)(=O)c2cc(-c3n[nH]c(=O)c4ccccc34)ccc2C)cc1 | inconclusive [inhibitor, single point] | 
Cc1cccc(CSc2nn3c(=O)c(C)nnc3s2)c1 |  | inactive: -2.54%
Clc1cccc(N=NN2CCOCC2)c1Cl | inconclusive [inhibitor, single point] | 
Cc1ccc(C(=O)CNc2ccccc2C)cc1 |  | inactive: 1.51%
N#Cc1nc(COc2cccc(Cl)c2)oc1N1CCN(c2ccccc2)CC1 | inconclusive [inhibitor, partial curve] | 
COc1ccc(OC)c(N2CC(O)(c3cccs3)[N+]3=C2SCCC3)c1 (stereo not given) | inconclusive [inhibitor, single point] | 
COc1ccccc1NC(=S)N(Cc1ccco1)Cc1cc2cc(C)cc(C)c2[nH]c1=O | inconclusive [inhibitor, single point] | 
CC(=O)Nc1ccc(CN2CCc3c([nH]c4ccccc34)C2c2ccccn2)cc1 (stereo not given) | inconclusive [inhibitor, single point] | 
CCOc1cc(CNc2ccc(N3CCN(C(C)=O)CC3)cc2)cc(Br)c1OC | inconclusive [inhibitor, single point] | 
COc1ccc(C2C3=C(CCCC3=O)Nc3nc(SCc4ccccc4)nn32)cc1OC (stereo not given) |  | inactive: 7.72%
C=CCn1c(NC(=O)CC)c(C(=O)OCC)sc1=S |  | inactive: -0.3%
O=C(N/N=C\c1ccc([N+](=O)[O-])s1)c1cncc(Br)c1 | inconclusive [inhibitor, single point] | 
CO[C@]12C[C@@H](COC(=O)c3cncc(Br)c3)CN(C)[C@@H]1Cc1cn(C)c3cccc2c13 | inconclusive [inhibitor, partial curve] | 
Cc1ccc(-c2csc(=Nc3cccnc3)n2CCCn2ccnc2)cc1C | inconclusive [inhibitor, partial curve] | 
C=CC(C)=O |  | inactive: 6.87% [at 21.7 µM]
Cc1ccccc1C1CCCN(C(=O)c2cc(COc3c(F)cccc3F)on2)C1 (stereo not given) | inconclusive [activator, single point] | 
CC(C)(C)C(=O)Nc1ccc(Oc2ccc3c(c2)C(=O)N(c2ccc(O)cc2)C3=O)cc1 | inconclusive [inhibitor, single point] | 
CCN(CC)Cc1c(O)c(Cl)cc2c(C)cc(=O)oc12 | inconclusive [inhibitor, single point] | 
O=C(NN1C(=O)C2CC=C(Cl)CC2C1=O)c1ccncc1 (stereo not given) | inconclusive [inhibitor, partial curve] | 
C=CCNC(=O)N1CCCC(C(=O)c2cccc(Cl)c2)C1 (stereo not given) | inconclusive [inhibitor, single point] | 

Compound | Potency | activity, negative = inhibition
Cc1cc(C(F)(F)F)nc(SCC(=O)Nc2cc(C)on2)n1 |  | inactive: 8.4%
O=C(CCCN1C(=O)/C(=C/c2ccccc2)SC1=S)Nc1cccc(O)c1 | inconclusive [inhibitor, single point] | 
O=C(CCn1c(=O)sc2ccccc21)NCc1ccc2c(c1)OCO2 |  | inactive: -2.18%
CCN(CC)S(=O)(=O)c1cccc2c(N(C)C)cccc12 | inconclusive [activator, single point] | 
CC(C)OC(=O)CC12CN3CN(C1)CC(CC(=O)OC(C)C)(C3)C2=O |  | inactive: 9.25%
CN1C(=O)NC(NS(=O)(=O)c2ccc(N)cc2)(C(F)(F)F)C1=O (stereo not given) | inconclusive [inhibitor, single point] | 
O=C(Nc1cccnc1)c1ccccc1F |  | inactive: 1.14%
CC(C)(C)c1ccc(CNc2cc(N3CCOCC3)ccc2[N+](=O)[O-])cc1 | inconclusive [inhibitor, partial curve] | 
CCC1CCCCN1C(=O)CSc1nnc(-c2ccc3c(c2)OCCO3)o1 (stereo not given) |  | inactive: 3.29%
C=CCNC(=O)c1c(N)n(-c2cccc(S(N)(=O)=O)c2)c2nc3ccccc3nc12 | inconclusive [activator, partial curve] | 
Cc1ccccc1NC(=S)N/N=C/c1ccc(O)cc1O | inconclusive [inhibitor, partial curve] | 
COc1ccccc1N1C(=O)CC(N2CCc3ccccc32)C1=O (stereo not given) | inconclusive [inhibitor, single point] | 
CC1(C)C2CC=C(/C=N/NC(=S)NCCc3ccccc3)C1C2 (stereo not given) |  | inactive: -10.2%
CCCCCCC(=O)Nc1nc(C)c(-c2csc(Nc3cccc(OC)c3)n2)s1 | inconclusive [inhibitor, single point] | 
Cc1nc(SCC(=O)c2cccc([N+](=O)[O-])c2)n[nH]1 |  | inactive: 6.11%
Cc1onc(-c2ccccc2)c1-c1csc(COc2ccccc2)n1 | inconclusive [activator, partial curve] | 
CCOc1ccc(CSC(=N)N)cc1 | inconclusive [activator, single point] | 
O=C1CC(c2ccccc2)=NN1c1nc(-c2ccccc2)cs1 | inconclusive [inhibitor, single point] | 
O=C1c2c(O)cc(O)cc2O[C@H](c2ccc(O)c(O)c2)[C@H]1O | inconclusive [inhibitor, single point] | 
Cc1cccc(OCCCCCn2ccnc2)c1 |  | inactive: -4.39%
COc1ccc2occ(C(=O)c3ccccc3)c2c1 | inconclusive [activator, single point] | 
CCCCC1C(=O)NC(=S)NC1=O |  | inactive: 0.507%
CN(C)c1ccnc2sc3c(NCC(O)CO)ncnc3c12 (stereo not given) | inconclusive [inhibitor, full curve, poor fit] | 
CCOC(=O)N1CCN(C(=O)c2cnc(Nc3ccccc3OC)c3ccccc23)CC1 |  | inactive: 16.9%
Cc1cccc(N=Nc2c(C)[nH]n(C(N)=S)c2=O)c1C |  | inactive: -15%

Compound | Potency | activity, negative = inhibition
Cc1cccc(OCCCc2c(C)n[nH]c2C)c1 |  | inactive: -0.514%
NC(=S)N=Nc1c(O)[nH]c2c(Br)cc(Br)cc12 |  | inactive: 10.7%
Cc1cccc(OCCCC(=O)Nc2ccc(Br)cc2)c1 | inconclusive [activator, partial curve] | 
C=CCOc1c(OC)cc(/C=N/Nc2cccc(C(=O)O)c2)c(Br)c1Br |  | inactive: -5.1%
Nc1[nH][nH]c(=O)c1N=Nc1cccc(Cl)c1 | inconclusive [inhibitor, single point] | 
S=C(NCCc1ccccc1)Nc1cccc2cnccc12 |  | inactive: -3.07%
CCN(CC)c1ccc(/C=C2/C(=O)c3ccc(C(=O)O)cc3C2=O)cc1 | inconclusive [inhibitor, single point] | 
CSc1nc2ccc(NC(=O)C3CCCO3)cc2s1 (stereo not given) |  | inactive: 0.769%
O=c1cc(/C=C/c2c(F)cccc2Cl)[nH]c2ccccc12 | inconclusive [activator, single point] | 
CC(=O)c1ccc(N2CCC(c3cc(-c4ccc(Cl)cc4Cl)n[nH]3)CC2)c([N+](=O)[O-])c1 | inconclusive [inhibitor, single point] | 
COc1cccc(NC(=S)NCc2cccs2)c1 |  | inactive: 6.09%
COc1ccc(N2CCN(C(=O)c3cccc(Br)c3)CC2)c([N+](=O)[O-])c1 | inconclusive [inhibitor, partial curve] | 
CC[N+](C)(CC)CC(=O)Nc1c(C)cccc1C | inconclusive [activator, full curve, poor fit] | 
CC1(C)C(=O)C(c2ccccc2)=C2CN3C(=O)N(CCc4ccccc4)C(=O)C3(Cc3ccc(C(F)(F)F)cc3)C=C21 (stereo not given) |  | inactive: 6.53%
Nc1c(Cl)ncnc1N/N=C/c1ccccn1 | inconclusive [inhibitor, full curve] | 
CCN(CC)c1ccc(/C=C(\C#N)c2nc(-c3cccs3)c(NC(C)=O)s2)cc1 |  | inactive: -22.3%
COC(=O)[C@@]1(Cc2ccc(OC)cc2)[C@H]2c3cc(C(=O)N4CCCC4)n(Cc4ccccn4)c3C[C@H]2CN1C(=O)c1ccccc1 | inconclusive [inhibitor, single point] | 
Cc1cc(C)cc(N=c2c([N+](=O)[O-])nn(-c3cccc(Cl)c3)n2O)c1 | inconclusive [inhibitor, partial curve] | 
O=C(OCc1cc(Cl)ccc1OC(F)F)c1cncc(Br)c1 | inconclusive [activator, partial curve] | 
Cc1ccc(-c2ccc(C3C(C#N)=C(N)Oc4n[nH]c(C)c43)o2)cc1 (stereo not given) |  | inactive: 3.53%
Cc1c(/C=N/Nc2nc3ccccc3[nH]2)c2ccccc2n1C | inconclusive [inhibitor, single point] | 
COc1cc(NC(=O)c2ccno2)cc(C(=O)Nc2cccc(C(F)(F)F)c2)c1 |  | inactive: -0.0702%
CCOC(=O)c1cnc(-n2nc(C)cc2C)nc1N(CC)CC |  | inactive: -13.9%
O=C(Nc1c(-c2ccccc2)nc2ccccn12)c1ccco1 |  | inactive: 3.11%
COC(=O)C1=CN(C(C)C)C=C(C(=O)OC)C1c1cc2c(cc1Br)OCO2 | inconclusive [activator, partial curve] | 
